From patent US7271245B2, “Methods and compositions for inhibition of metastasis” (The Scripps Research Institute, priority 2004, dated 2007)

Tests used:
[1] = molecular target: T1, alpha IIb beta 3 (Homo sapiens, UniProt P05106+P08514); assay: Flow cytometry, binding to other RGD-recognizing integrins
T1 construct: M21-LIIb cells (αIIbβ3, no αv integrin); expressed in transfected cells; host or cells: M21-LIIb human melanoma cells
Description: (§1) Flow cytometry. scFv binding to human tumor cells was analyzed by flow cytometry, initially with cloned scFv phage and then with purified scFv protein. Per sample, 2×10^5 tumor cells were blocked with goat serum and incubated either with scFv phage (2-5×10^10) (1 h at RT) followed by mouse anti-M13 mAb (Serotec) (30 min on ice) and goat FITC-anti mouse (Pierce) (30 min on ice), or with purified scFv (1.25 to 40 μg/ml, routinely 10 to 15 μg/ml) (45 min on ice), followed by mouse anti-FLAG mAb M2 (Sigma) (30 min on ice) and goat FITC-anti mouse. Binding/washing buffer was TBS with or without divalent cations (1 mM Ca^2+, 1 mM Mg^2+, 0.2 mM Mn^2+). Alternatively, tumor cells were washed in 10 ml of plasma (prepared freshly from human blood anticoagulated with 50 nM D-Phe-D-Pro-D-arginyl chloromethyl ketone, PPACK, Felding-Habermann et al., J. Biol. Chem. 271: 5892-5900, 1996), resuspended in plasma and then incubated sequentially, without washing, with purified scFv (45 min on ice), followed by anti-FLAG M2 (30 min on ice) and FITC-anti mouse (30 min on ice). All samples were counter stained with propidium iodide (PI) and analyzed on a Becton-Dickinson FACScan, with live gate set to exclude PI positive cells.
(§2) To generate therapeutic reagents that specifically react with activated αvβ3, a phage display library of single chain antibody fragments (scFv) was exploited. This library was derived from cancer patient blood lymphocyte cDNA libraries and allowed us to test the hypothesis that the expressed immune repertoire contains antibodies that recognize integrin αvβ3, and distinguish between its activated and non-activated forms. Mao et al., Proc. Natl. Acad. Sci. U.S.A 96: 6953-6958, 1999. A subtractive panning approach was designed based on variants of MDA-MB 435 human breast cancer cells. […] Apparently, these cells are selected during metastasis, as variant cells isolated from lung and bone metastases in immune deficient mice express constitutively activated αvβ3. To establish a cell population that uniformly expresses non-activated αvβ3, MDA-MB 435 parental cells were cloned by limiting dilution, and clones tested for αvβ3 functionality. […] A cell line, MDA-MB 435 Lung-Lung, was established which expressed αvβ3 in a constitutively activated form. This variant stems from a lung metastase of an immune deficient mouse whose mammary fat pad had been injected with parental MDA-MB 435 cells. […] After 5 rounds of subtracting the phage library on Parent Combo cells and panning on Lung-Lung cells, scFv clones were analyzed by flow cytometry for their ability to bind integrin αvβ3 on human tumor cells, and to distinguish between the activated and non-activated forms of the receptor (FIG. 1). […]

[2] = molecular target: T2, α5β1 (Homo sapiens, UniProt P05556+P08648); assay: as above
T2 construct: endogenous in cells
T2 sequence (P08648 42-894 limits assumed): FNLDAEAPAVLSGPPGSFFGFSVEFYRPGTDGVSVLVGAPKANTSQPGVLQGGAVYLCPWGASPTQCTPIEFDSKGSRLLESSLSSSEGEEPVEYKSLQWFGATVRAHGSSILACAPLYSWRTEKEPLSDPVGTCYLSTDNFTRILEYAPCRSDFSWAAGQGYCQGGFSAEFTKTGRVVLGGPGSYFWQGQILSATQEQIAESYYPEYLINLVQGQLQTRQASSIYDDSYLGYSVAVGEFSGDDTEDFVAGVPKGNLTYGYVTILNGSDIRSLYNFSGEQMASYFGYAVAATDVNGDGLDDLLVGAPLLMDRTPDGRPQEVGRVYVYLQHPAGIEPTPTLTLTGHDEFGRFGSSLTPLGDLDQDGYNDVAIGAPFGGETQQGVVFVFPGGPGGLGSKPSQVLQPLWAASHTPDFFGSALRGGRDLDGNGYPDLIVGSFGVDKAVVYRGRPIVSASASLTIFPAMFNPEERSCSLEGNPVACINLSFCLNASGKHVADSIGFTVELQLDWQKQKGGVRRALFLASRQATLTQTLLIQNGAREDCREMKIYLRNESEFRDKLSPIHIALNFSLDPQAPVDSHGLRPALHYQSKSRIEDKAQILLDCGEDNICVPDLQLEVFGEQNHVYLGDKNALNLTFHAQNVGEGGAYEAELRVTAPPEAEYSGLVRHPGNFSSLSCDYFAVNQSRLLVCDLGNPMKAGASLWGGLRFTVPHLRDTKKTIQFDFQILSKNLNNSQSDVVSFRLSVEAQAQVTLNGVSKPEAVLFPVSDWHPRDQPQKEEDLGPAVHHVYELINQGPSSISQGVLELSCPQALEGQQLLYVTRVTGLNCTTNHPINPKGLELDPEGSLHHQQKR
T2 sequence (P08648 895-1049 partner limits assumed): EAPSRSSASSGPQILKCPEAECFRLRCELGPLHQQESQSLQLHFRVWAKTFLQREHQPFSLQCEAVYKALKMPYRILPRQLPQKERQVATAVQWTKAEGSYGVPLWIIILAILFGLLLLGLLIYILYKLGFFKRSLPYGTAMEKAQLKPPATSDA
T2 sequence (P05556 21-798): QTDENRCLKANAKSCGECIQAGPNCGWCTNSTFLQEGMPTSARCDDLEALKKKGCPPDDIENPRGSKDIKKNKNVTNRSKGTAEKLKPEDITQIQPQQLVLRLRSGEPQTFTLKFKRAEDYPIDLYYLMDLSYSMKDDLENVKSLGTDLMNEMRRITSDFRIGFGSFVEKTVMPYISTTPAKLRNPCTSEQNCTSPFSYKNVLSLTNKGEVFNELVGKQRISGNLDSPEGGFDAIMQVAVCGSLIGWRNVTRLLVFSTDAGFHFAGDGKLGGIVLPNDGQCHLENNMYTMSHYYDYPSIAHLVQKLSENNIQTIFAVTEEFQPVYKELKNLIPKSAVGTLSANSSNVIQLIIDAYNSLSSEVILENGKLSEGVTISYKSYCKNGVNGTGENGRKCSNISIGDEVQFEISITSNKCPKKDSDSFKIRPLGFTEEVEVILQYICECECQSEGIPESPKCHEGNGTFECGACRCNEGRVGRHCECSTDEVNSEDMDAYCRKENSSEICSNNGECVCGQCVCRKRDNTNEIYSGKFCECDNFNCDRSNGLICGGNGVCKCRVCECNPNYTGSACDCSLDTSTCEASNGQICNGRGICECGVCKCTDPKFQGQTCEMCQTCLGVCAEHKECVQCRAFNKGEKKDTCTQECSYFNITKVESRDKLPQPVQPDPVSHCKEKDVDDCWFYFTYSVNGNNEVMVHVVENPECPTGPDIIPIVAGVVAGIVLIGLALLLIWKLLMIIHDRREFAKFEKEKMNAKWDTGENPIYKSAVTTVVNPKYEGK
Description: as §1, §2

[3] = molecular target: T3, integrin αvβ5 (Homo sapiens, UniProt P06756+P18084); assay: as above
T3 construct: UCLA-P3 lung adenocarcinoma cells (αv integrins, but no αvβ3); endogenous in cells; host or cells: UCLA-P3 human lung adenocarcinoma cells
T3 sequence (P06756 31-889 limits assumed): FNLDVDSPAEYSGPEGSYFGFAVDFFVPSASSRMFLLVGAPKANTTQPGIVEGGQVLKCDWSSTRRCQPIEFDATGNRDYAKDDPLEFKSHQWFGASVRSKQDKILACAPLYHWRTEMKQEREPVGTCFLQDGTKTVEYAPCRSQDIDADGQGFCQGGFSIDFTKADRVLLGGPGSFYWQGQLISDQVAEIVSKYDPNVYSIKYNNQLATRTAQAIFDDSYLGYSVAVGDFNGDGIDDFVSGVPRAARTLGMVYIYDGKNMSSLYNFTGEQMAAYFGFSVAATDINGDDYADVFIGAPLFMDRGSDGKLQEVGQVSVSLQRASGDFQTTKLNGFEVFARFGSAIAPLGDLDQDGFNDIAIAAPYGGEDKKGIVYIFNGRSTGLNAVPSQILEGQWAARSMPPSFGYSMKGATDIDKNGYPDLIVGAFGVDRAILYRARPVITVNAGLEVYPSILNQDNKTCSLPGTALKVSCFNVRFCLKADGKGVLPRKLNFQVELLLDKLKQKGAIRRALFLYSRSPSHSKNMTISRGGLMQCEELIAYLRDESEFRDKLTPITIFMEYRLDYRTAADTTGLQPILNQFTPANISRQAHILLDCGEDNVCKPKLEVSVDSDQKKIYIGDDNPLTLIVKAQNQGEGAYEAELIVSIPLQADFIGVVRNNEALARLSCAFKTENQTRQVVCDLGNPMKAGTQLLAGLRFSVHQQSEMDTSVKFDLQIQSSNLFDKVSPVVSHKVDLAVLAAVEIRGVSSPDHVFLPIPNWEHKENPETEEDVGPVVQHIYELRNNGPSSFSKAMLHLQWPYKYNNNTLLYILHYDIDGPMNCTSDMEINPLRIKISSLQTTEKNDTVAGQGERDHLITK
T3 sequence (P06756 891-1048 partner limits assumed): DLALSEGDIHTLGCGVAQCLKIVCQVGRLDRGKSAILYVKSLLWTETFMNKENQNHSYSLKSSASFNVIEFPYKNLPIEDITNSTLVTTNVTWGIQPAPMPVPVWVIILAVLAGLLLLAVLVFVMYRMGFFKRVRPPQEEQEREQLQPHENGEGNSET
T3 sequence (P18084 24-799): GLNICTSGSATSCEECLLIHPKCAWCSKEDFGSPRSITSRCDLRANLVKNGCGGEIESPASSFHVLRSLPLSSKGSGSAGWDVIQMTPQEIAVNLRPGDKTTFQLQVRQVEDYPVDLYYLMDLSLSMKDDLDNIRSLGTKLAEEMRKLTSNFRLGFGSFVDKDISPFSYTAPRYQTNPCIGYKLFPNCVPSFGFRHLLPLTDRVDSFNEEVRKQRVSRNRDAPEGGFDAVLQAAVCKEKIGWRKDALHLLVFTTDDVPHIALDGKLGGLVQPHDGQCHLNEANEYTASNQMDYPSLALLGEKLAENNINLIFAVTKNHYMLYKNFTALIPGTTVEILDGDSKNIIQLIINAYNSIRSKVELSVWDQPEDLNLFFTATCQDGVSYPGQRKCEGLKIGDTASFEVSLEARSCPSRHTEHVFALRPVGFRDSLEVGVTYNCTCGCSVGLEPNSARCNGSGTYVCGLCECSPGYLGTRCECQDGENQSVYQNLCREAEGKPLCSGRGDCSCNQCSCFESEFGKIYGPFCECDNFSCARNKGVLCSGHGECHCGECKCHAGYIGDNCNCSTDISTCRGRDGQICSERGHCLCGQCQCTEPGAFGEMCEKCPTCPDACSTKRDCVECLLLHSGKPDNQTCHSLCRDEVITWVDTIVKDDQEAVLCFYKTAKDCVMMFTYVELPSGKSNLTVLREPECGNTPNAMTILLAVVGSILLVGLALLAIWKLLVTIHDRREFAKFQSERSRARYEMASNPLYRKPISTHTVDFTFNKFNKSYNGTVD
Description: as §1, §2

[4] = molecular target: T4, αvβ1 (Homo sapiens, UniProt P05556+P06756); assay: as above
T4 construct: UCLA-P3 lung adenocarcinoma cells (αv integrins, but no αvβ3); endogenous in cells; host or cells: UCLA-P3 human lung adenocarcinoma cells
T4 sequence (P06756 31-889 limits assumed): as the sequence (P06756 31-889 limits assumed) above
T4 sequence (P06756 891-1048 partner limits assumed): as the sequence (P06756 891-1048 partner limits assumed) above
T4 sequence (P05556 21-798): as the sequence (P05556 21-798) above
Description: as §1, §2

[5] = tested on: Integrin αIIβ3 mediated adhesive platelet functions; assay: Platelet adhesion and thrombus formation during blood perfusion; format: cell-based, human; details: 3 μM scFv
Description: Tumor cell arrest during bloodflow. Breast cancer cell arrest during blood flow and interaction with platelets was measured as described. Felding-Habermann, et al., Proc. Natl. Acad. Sci. U.S.A 98: 1853-1858, 2001. Felding-Habermann et al., J. Biol. Chem. 271: 5892-5900, 1996. Briefly, tumor cells were suspended in human blood anticoagulated with 50 nM PPACK and perfused over a collagen I matrix at a venous wall shear rate of 50 s^−1, 2 dynes/cm^2. Adhesive events and cell interactions were visualized and recorded by fluorescence video microscopy and quantified by image acquisition at 30 predefined positions followed by computerized image analysis (MetaMorph, Universal Imaging). Tumor cells were stained with hydroethidine (red fluorescence) (20 μg/ml, 30 min, 37° C.), washed, and mixed with blood containing 10 μM mepacrine (green fluorescence). Blood cells, tumor cells, and platelets acquired green fluorescence and were visualized at 488/515 nm (excitation/emission). Tumor cells were identified by their unique red fluorescence at 543/590 nm. To test inhibition, tumor cells were incubated with 3 μM scFv for 5 min at 37° C., then mixed into blood, scFv added to 3 μM final concentration and perfused immediately.
In the circulation, metastatic tumor cells are intensely exposed to a cancer patient's immune surveillance, encountering potential function blocking antibodies like Bc-12 and Bc-15. […]

B1: Bc-15: patient derived human scFv antibody against activated αvβ3 with RGD motif in CDR-H3; cDNA ATCC PTA-6304 (protein)
scFv: MAQVQLVQSGAEVKEPGSSVKVSCKASGGTFSSYAIYWVRQAPGQGLEWMGWINPDSGDTNSAQQFQGRVTMTRDTSISTAYMELSRLRSDDTAMYYCARPPRGDGPDYWGQGTLVTVSSGGGGGS[letters of about 100 residues not shown]RGLGGLVDYKDDDDK
binding to alpha IIb beta 3 [1]: do not bind
binding to α5β1 [2]: do not bind
binding to integrin αvβ5 [3]: do not bind
binding to αvβ1 [4]: do not bind
adhesive platelet functions [5]: not affected
